Where two headings read alike, the source gives them in different places. Where no end group is shown, it is not given here.
Test system: NHP laser induced choroidal neovascularization model
Details: monkeys; for tolerability / intraocular inflammation: single IVT dose 2 mg in 50 μl
Description: This Pilot efficacy study was conducted on NHP laser induced choroidal neovascularization (“CNV”) model. Four monkeys were used for this pilot study and each animal was undergone eye examination procedures. Animals were sedated with ketamine intramuscularly (10-20 mg/kg) and Medetomidine (0.02 mg/kg; IM). Topical anaesthesia (1-2 drops of 1% xylocaine) was applied to reduce the discomfort of the eyes. Pupils of non-human primates were dilated with 2.5% phenylephrine hydrochloride and 1% tropicamide drops for the ocular imaging procedures.
Laser photocoagulation was performed on both eyes of the animals to create a model for CNV as previously described (Lai C M et al., 2005). Briefly, nine laser burns was delivered around the macula of each eye in the manner of a grid with a protocol of 500-800 mW power intensity, 50-micron spot size, and 0.1-s duration. The distance from each laser spot to the central fovea was maintained at 0.5 to 1 disc diameter size. Care was taken to avoid damaging the fovea.
After the animal being anesthetized, the eyes were locally anesthetized by putting a drop of xylocaine in the conjunctival sac. A 5% povidone iodine solution was placed in the conjunctival sac. A self-retaining eyelid speculum was placed in the eye. Caliper was used to measure and mark a location at 2 mm behind the limbus. Forceps was also be used to stabilize the eye and the intravitreal injection was performed using a 30-gauge needle. The tested compounds (2 mg in 50 μl) were administered single IVT injection into both eyes on day 15 (14 days after laser injury). Daily cage-side observations were performed on all animals to monitor for clinical signs of poor health, including any ocular abnormalities.
Fundus photography was carried out on both eyes at pre-laser and day 14 post-laser and day 29 post laser (2 weeks after treatment). For photography the pupils were dilated as mentioned above and imaged with a fundus camera (TopCon Corp., Tokyo, Japan). The fundus photographs were used to detect any changes in the retina such as inflammation and pigmentation.
FFA was performed on both eyes by intravenous injection of 10% sodium fluorescein dye (0. ml/kg body wt). The fundus images were taken between 10 s and 15 min after dye injection. FFA images were assessed and graded according to standardized system: • Grade 1—No hyperfluorescence—No leak • Grade 2—Hyperfluorescence—No leak • Grade 3—Hyperfluorescence—Late leak • Grade 4—Bright Hyperfluorescence with Late Leak Beyond Spot Optical Coherence Tomography (OCT):
OCT was carried out on both eyes at pre-laser and day 14 post-laser and day 29 post laser (2 weeks after treatment).
Animals were sacrificed on the proposed day (day 30) and the upper body was perfused through the aorta (descending clamped) with half-strength Karnovsky fixative. The eyes were removed, postfixes for 2 to 3 days in half-strength Karnovsky fixative, and then stored in formalin until processed. Strips of tissue containing 1 or 2 lesion sites were embedded in plastic. Sections 2 μm thick were taken at 30-μm steps through the middle of each lesion. […] This section was then evaluated by an observer masked to the treatment condition.
A tissue proliferation score was calculated for each lesion based on 3 criteria: the size of the spindle cell proliferative lesion, the extent of new blood vessel proliferation in the subretinal space, and the elevation of the retina above the choriocapillaris. […]

Eylea: Eylea (anti-VEGF), positive control; clinical compound [reference compound]
lesion / laser spot area, thickness and volume (post treatment vs pre-treatment): significantly reduced after treatment as compared to pre-treatment | tolerability / intraocular inflammation: well tolerated

TPHTHNRTPE [Angio-3, Thr Pro His Thr His Asn Arg Thr Pro Glu]
tolerability / intraocular inflammation: well tolerated | tolerability / intraocular inflammation (listed as SIPRAD-0276): well tolerated via IVT and no signs of inflammation found

ranibizumab [Lucentis]
tolerability / intraocular inflammation: well tolerated

Reference: patent US11266710B2, “Angio-3 for treatment of retinal angiogenic diseases” (SINGAPORE HEALTH SERVICES PTE LTD, priority 2017, dated 2022)
